Measurements from PubChem BioAssay AID504706 (National Center for Advancing Translational Sciences (NCATS), 2011).
In all, about 320,000 compounds went through this assay and about 200 (0.062%) were called active. This list was built around the results that the source calls inconclusive (neither active nor inactive); the mix of calls is not that of the screen. The call rests on the fitted dose curve; in most records, active means well fitted activation curve with a large enough effect; inconclusive means small, poorly fitted or top-dose-only effect; inactive means no such curve, though single readings can be large or run the other way. No potency is given beside an inconclusive call; the fits are too rough.

Assay: qHTS assay for re-activators of p53 using a Luc reporter; further: nearly all actives have a fitted effect of over 45% in size
Settings: H1299 p53-A138V BP100-luciferase reporter, luminescence, 24 h; series mostly up to 92.2 µM
In short: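 p53-null H1299 cells stably carrying temperature-sensitive p53-A138V and a BP100-luciferase reporter were pinned with compounds (4-point, 1:5 series) and held 24 hrs at 37 deg C. Luminescence was read 10 min after detection reagent.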
Potency means the concentration at half of the fitted maximal effect; tags describe the fitted curve by direction and shape.

**Q.** With `COc1ccc(CCNC(=O)c2cc(C(=O)c3cc(Cl)ccc3O)cn(CCc3ccc(OC)cc3)c2=O)cc1` as the compound, how does the Potency read?
**A.** inactive

**Q.** With `O=C(/C=C/c1ccccc1)N1CCC(Cc2ccccc2)CC1` as the compound, how does the Potency read?
**A.** inconclusive [activator, partial curve, poor fit]

**Q.** For `CN(C)CCNc1oc(COc2ccc(-c3ccccc3)cc2)nc1C#N`, which Potency is on record?
**A.** inconclusive [activator, single point]

**Q.** With `COc1ccc(OCCOc2ccc(C)nc2[N+](=O)[O-])cc1` as the compound, how does the Potency read?
**A.** inconclusive [activator, partial curve, poor fit]

**Q.** With `Cc1cc(Oc2nc3c(C)cccn3c(=O)c2/C=C(\C#N)S(=O)(=O)c2ccccc2)ccc1Cl` as the compound, how does the Potency read?
**A.** inconclusive [activator, single point]

**Q.** With `C(=N\Nc1nc(-c2ccccc2)cs1)/c1ccco1` as the compound, how does the Potency read?
**A.** inconclusive [activator, partial curve, poor fit]

**Q.** With `O=C1C(C2=NC(c3ccccn3)C3C(=O)N(c4ccc(OC(F)(F)F)cc4)C(=O)C23)=C(O)c2ccccc21` (stereo not given) as the compound, how does the Potency read?
**A.** inactive

**Q.** With `O=C1c2ccccc2-c2nc3ccccc3cc21` as the compound, how does the Potency read?
**A.** inconclusive [activator, partial curve, poor fit]

**Q.** Which Potency does the source give for `CN(Cc1ccccc1)C(=O)c1ccc(NC(=O)C2CCN(C(=O)OC(C)(C)C)CC2)cc1` here?
**A.** inactive

**Q.** Which Potency does the source give for `O=C(CCSc1ccc(Cl)cc1)N1CCN(c2ncccn2)CC1` here?
**A.** inconclusive [activator, single point]

**Q.** For `COc1cccc2sc3cc(C#CC4(O)CCCCC4)ccc3c(=O)c12`, which Potency is on record?
**A.** inconclusive [activator, full curve, poor fit]

**Q.** Which Potency does the source give for `CCC1=NN(C(=O)c2ccc(Cl)cc2)C(O)(c2ccccc2)C1` (stereo not given) here?
**A.** inactive

**Q.** For `O=C(Oc1ccc(-c2cnc3ccccc3n2)cc1)c1cc([N+](=O)[O-])ccc1Cl`, which Potency is on record?
**A.** inconclusive [activator, partial curve, poor fit]

**Q.** With `Cc1cc(Nc2cc(C)on2)n2ncnc2n1` as the compound, how does the Potency read?
**A.** inactive

**Q.** With `Cc1ccc(S(=O)(=O)N(CC2CO2)c2cccc([N+](=O)[O-])c2)cc1` (stereo not given) as the compound, how does the Potency read?
**A.** inconclusive [activator, partial curve, poor fit]

**Q.** For `NNC(=O)COc1cccc2cccnc12`, which Potency is on record?
**A.** inactive

**Q.** Which Potency does the source give for `CCN1CCN(CCNC(=O)c2ccc(CS(=O)(=O)c3c(Cl)cccc3Cl)o2)CC1` here?
**A.** inactive

**Q.** Which Potency does the source give for `O=C(O)c1ccc(/C=N/n2cc(-c3ccccc3)[nH]c2=S)cc1` here?
**A.** inactive

**Q.** For `Cc1oc(/C=N/NC(=O)CC2(C)OCCO2)cc1Br`, which Potency is on record?
**A.** inactive

**Q.** With `CCOC(=O)N1CCC(NC(=O)c2ccc3c(c2)N(Cc2ccccc2)CCS3)CC1` as the compound, how does the Potency read?
**A.** inactive

**Q.** Which Potency does the source give for `Fc1cccc(Cn2ccc(-c3ccc4c(c3)OCO4)n2)c1` here?
**A.** inconclusive [activator, full curve, poor fit]

**Q.** Which Potency does the source give for `CC1CCc2c(sc(NC(=O)C3=COCCO3)c2C(N)=O)C1` (stereo not given) here?
**A.** inconclusive [activator, full curve, poor fit]

**Q.** Which Potency does the source give for `COc1cccc(CSc2nc3ccccc3[nH]2)c1` here?
**A.** inconclusive [activator, partial curve, poor fit]

**Q.** With `Cc1cccc2c1cnn2C(=O)Nc1cc(F)ccc1F` as the compound, how does the Potency read?
**A.** inconclusive [activator, partial curve, poor fit]

**Q.** Which Potency does the source give for `CCN(CC)S(=O)(=O)c1cccc(C(=O)NC2CCCCC2)c1` here?
**A.** inactive

**Q.** For `Cc1ccc(N(C(=O)Cn2nnc(-c3ccc(F)cc3)n2)C(C(=O)NC(C)(C)C)c2ccncc2)cc1` (stereo not given), which Potency is on record?
**A.** inactive

**Q.** With `Cc1ccc(Cl)cc1NC(=S)Nn1cnnc1` as the compound, how does the Potency read?
**A.** inconclusive [activator, partial curve, poor fit]

**Q.** With `Cc1cccc(C(=O)NCC(=O)N2CCCCCCC2)c1` as the compound, how does the Potency read?
**A.** inconclusive [activator, single point]

**Q.** Which Potency does the source give for `Cc1ccccc1C(=O)N/N=C/c1ccsc1C` here?
**A.** inconclusive [activator, partial curve, poor fit]

**Q.** Which Potency does the source give for `CC(C)c1nnc(NC(=O)c2nc(S(=O)(=O)Cc3ccc(F)cc3)ncc2Cl)s1` here?
**A.** inactive

**Q.** Which Potency does the source give for `CC(Sc1ccc2ccccc2c1)C(=O)NC(N)=O` (stereo not given) here?
**A.** inactive

**Q.** Which Potency does the source give for `O=C(O)c1[nH]c2ccccc2c1C(c1cc(Br)ccc1O)c1c(C(=O)O)[nH]c2ccccc12` here?
**A.** inactive

**Q.** With `CCOc1cc(NC(=S)NCCCN2CCOCC2)c(OCC)cc1NC(=O)c1cccc(C)c1` as the compound, how does the Potency read?
**A.** inactive

**Q.** For `CCOc1ccccc1NC(=O)CN(c1ccc(OC)cc1)S(=O)(=O)c1c(C)noc1C`, which Potency is on record?
**A.** inactive

**Q.** Which Potency does the source give for `COc1ccc(C)cc1NC(=O)c1cc2c(s1)CCC2` here?
**A.** inconclusive [activator, full curve, poor fit]

**Q.** With `CCOCCn1c(COc2ccc(C)cc2)nc2ccccc21` as the compound, how does the Potency read?
**A.** inconclusive [activator, partial curve, poor fit]

**Q.** With `CN(/N=C/c1ccc2c(c1)OCO2)c1ccccc1` as the compound, how does the Potency read?
**A.** active: 10 µM

**Q.** With `O=C(NC(=S)Nc1nc2c(s1)CCCC2)c1ccccc1` as the compound, how does the Potency read?
**A.** inconclusive [activator, partial curve, poor fit]

**Q.** Which Potency does the source give for `COC(CNC(=S)Nc1ccc([N+](=O)[O-])cc1)OC` here?
**A.** inconclusive [activator, partial curve, poor fit]

**Q.** Which Potency does the source give for `CC(C)c1ccc(NC(=O)COc2ccc(F)cc2C(=O)c2cnn(-c3ccccc3)c2)cc1` here?
**A.** inconclusive [activator, full curve, poor fit]

**Q.** For `FC(F)(F)c1cnc2c(c1)Nc1ccccc1S2`, which Potency is on record?
**A.** inconclusive [activator, partial curve, poor fit]

**Q.** Which Potency does the source give for `C/C(CC(=O)Nc1ccc([N+](=O)[O-])cc1)=N\NC(=O)c1ccccc1[N+](=O)[O-]` here?
**A.** inconclusive [activator, single point]

**Q.** With `Cc1cccc(NC(=S)N/C(=N/S(=O)(=O)c2ccccc2)c2ccccc2)c1` as the compound, how does the Potency read?
**A.** inconclusive [activator, partial curve, poor fit]

**Q.** With `COc1ccc(CCNc2c(C)c(C)nc3ncnn23)cc1` as the compound, how does the Potency read?
**A.** inactive

**Q.** Which Potency does the source give for `CC(C)(C)c1nnc(SCC(=O)c2ccccc2)n(N)c1=O` here?
**A.** inconclusive [activator, partial curve, poor fit]
